Laboratory results as given in the RNAGym collection of RNA variant scans (doi:10.1073/pnas.2313332121).
Variants at the floor of the assay are shown more often than the library holds them.

B1: TPR 5TU (parent)
chain: GGAUCUUCUCGAUCUAACAAAAAAGACAAAUCUGCCACAAAGCUUGAGAGCAUCUUCGGAUGCAGAGGCGGCAGCCUUCGGUGGCGCGAUAGCGCCAACGUUCUCAACUAUGACACGCAAAACGCGUGCUCCGUUGAAUGGAGUUUAUCAUG

Variants of: B1
Assay: polymerase ribozyme fitness, log enrichment relative to wild type (log ratio); higher = more active; in vitro selection for triplet polymerase activity
Procedure, shortened: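 PCR was used to build mutant libraries for each subunit of a heterodimeric triplet polymerase ribozyme, which were then transcribed. A single in vitro selection round, in triplicate, used a frozen incubation at −7 °C and recovered extended constructs by gel excision, streptavidin beads and RT-PCR. Fitness is the logarithm of genotype enrichment relative to wild-type enrichment, averaged over replicates with inverse-variance weights. The logarithm is base 2, and after Illumina sequencing only genotypes with ≥10 input reads and ≥1 read per output were kept.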

Polymerase ribozyme fitness (log ratio), -0.494:
A16U G59C A150U

Polymerase ribozyme fitness (log ratio), -1.88:
A16U A41G

Polymerase ribozyme fitness (log ratio), -2.97:
A16U U45C C123A

Polymerase ribozyme fitness (log ratio), -2.25:
A16U C87U C116U

Polymerase ribozyme fitness (log ratio), ≤ -4.2:
A16G C27G G84U C118G G128U U151A
A16G C27U A28G C43U U53A C57A U82G C93U
A16G C32A C38G U56A A60C C87A C123U A150C
A16G C32G C75A U78G
A16G C35A G59U C75G C93U C99A U101G
A16G C35U C38A A47U C116G C118U U144C
A16G C35U C57A G68U G84C C85G U127C
A16G C43A G80C G88U A89G G92U C125G
A16G C43U C51U G80C G117A A142C
A16G C51G C75U C87A A122G G140U
A16G C76U C79A G83U G152U
A16G C85A G100U G133C
A16G C87A
A16G G25U U78G G94C C96A C116G U146G
A16G G34C C35A C54A C93A
A16G G34U A52U A60G C72G G88U A91U G140C
A16G G34U C93U U134G G140A
A16G G42A G50C A52U C57A G70A
A16G G48A C57A C76U A89C C95A C116G C131A G136C
A16G G50C
A16G G58A C75G G117A
A16G G58A U61A C93U C103A A110G
A16G G67C G84U C116G U135C U139G
A16G G68C
A16G G68C C75U G94C A98U C105A G143U
A16G G83C A110U U135A G141U
A16G G86U A115U U151C
A16G G86U C132U U135G
A16G U44G G74U U90C A115G
A16G U45G A49C C87U C93A
A16G U53A C87U G92U G94U C96A
A16G U53A G94A G133C A137G A142U G152C
A16G U55A A89C U109C
A16G U55A C116G C118A U151G
A16G U56A G59C G88U A142C U145C
A16G U134C G136U
A16U A17C C43U G48C G100A A115C U145C
A16U A17C C85G G128A
A16U A17G A26C C69G
A16U A17G C85U A115U
A16U A17U G62A G68U C85G G143C
A16U A19C C43G A91U
A16U A19U C93G
A16U A19U U33G G42C
A16U A20C G46A G58U G70A G100A
A16U A20G C32A C103A A113U A122C A138G G140U
A16U A20G C87A C93A G112U
A16U A20U C51G U55A G58A A91C A106U A138U
A16U A21C G71A C95U U104G C116G
A16U A21C G88C C95A C96A C116U G128A
A16U A21G A24G G25U C95U U109G A120U
A16U A21G A28C C51G G65U A98G U135C A142G U148G
A16U A21G C32U G50C U151G
A16U A21U A23U A29C C85U A115G C125A
A16U A21U G48U G50A C95G C125G
A16U A22C A30U U55A C57A C76G G81U G84C
A16U A22C C51U U55A G74A C99G C114A C131U
A16U A22G C72U C79U C87A U104G
A16U A22U A30C U61G G83U C85A
A16U A22U C87G C105A
A16U A23C G46U U61A A66G C87U
A16U A23U C51U G86A C125U G126C
A16U A24C A49G C51U U77A C79U C87A C125G
A16U A24U A37C U44C G50A A64C G71A U77A G83A A89C G126A
A16U A24U A47C A52U C96A
A16U A26U U56A U104G G126A A138G A142C
A16U A28G U31G C38U C96G G136U U145G
A16U A28U A49U G59A G80A A107U
A16U A28U C69A U78C G88C C132U G140C
A16U A29G A64C G68U C96G A121G U145C
A16U A29U U134A U148A
A16U A30G A89U C93A A106U U109A
A16U A30U U55A C69A C79U C108G
A16U A30U U56A G65C G68U G94U A150U
A16U A37C A40U U45A U61A G80A A138U A150C
A16U A37C G128U U130C
A16U A37U A52C G112U U139A
A16U A37U C79A C99U U139A A142U
A16U A39C G71A C75U G94C G140A
A16U A39U C43U A89G G92C A97G C108G U139G C149A
A16U A40C C51A A52G C54U C76A C87G A89U A91U
A16U A40C C51A A52U G74A C76G C95U A107G
A16U A40G A49U C69A G80A C87G G100U G136A
A16U A41G A47C G58C A122G C125G A137G
A16U A41U G59A C116G C129U A150G
A16U A49C C75U A120G G140C
A16U A49C G50A G94A
A16U A49C G68A C93U
A16U A52C U90G U139G
A16U A52G G80A G81C A121U U127A
A16U A52G G86U A89U A115G
A16U A73C A142C
A16U A106U A107C A138G
A16U A110G A147U
A16U C27A C51U A52G C75G C96U
A16U C27G A89G G92U C149G
A16U C27G U45G G48A C54A U78C G83U A97G G140A
A16U C27U A29C U44G C87A C114U
A16U C32A A39C G81C A107G A120C
A16U C32G G34A C85G U90G A97G U134G G141C
A16U C35G A60G G68C G92C C95U C114A A121G
A16U C35G G42A U78C G92A U102G
A16U C36U C43U U61A G92C C103A G117U C149A
A16U C36U C72A
A16U C36U G59A C93G C118U U139G
A16U C38G C54U A142C U146G A150G
A16U C38U C54U U56A G81U C87U C116G G133C
A16U C43A A49C U55C G83A A89C A91U U130A
A16U C43U A52C C85G C87U G92A A97U G124A
A16U C51G G84U C125U G133C U139C
A16U C54A C85A
A16U C54A G94U C105A G136U
A16U C75G C87A A98U G124A
A16U C87A
A16U C87A C96A G141A
A16U C96U C99A G133C G141A
A16U G25C C72G C76G C96U A107U A115G C129U
A16U G25C G34U C93U C105U G124U
A16U G25U C35A A41C U53A C76U C79G A89U C93U U139G
A16U G25U G34C C36G C85U
A16U G42C C93G A138G G140U
A16U G46A G58A G83A A91U A142C
A16U G50A A52U U55A C57U G84U C103A A107G
A16U G50A C114A U127A
A16U G50C C51G U55G C57U C79G G94U A110G A115G U139A
A16U G50C U134G
A16U G58C C75G C93U C103A A115G C132U G141A
A16U G68A C75A C76U G88U A97G A107U A121G
A16U G68A C75A C76U G88U A107U A121G
A16U G70A C99G G143C U148C
A16U G71U U102G
A16U G83A A142G U148A
A16U G88A U135A G140A
A16U G92C G100A
A16U U31A C54U A66G C95A
A16U U31A C57A G65A C72A C85G
A16U U31A G34U G46A G81C A120U
A16U U31G A37G G83A C96A A106C
A16U U33A C76U
A16U U33G U55A C57U G86U A119U
A16U U33G U61A C96U
A16U U45A A47C G48A C105U C114U
A16U U45A G59U C96U A113G C118A
A16U U45A U55G C75A G83A C95U A106U G143A
A16U U45A U56A C63G G86U A89C C93U U104C C114A C118G A122U
A16U U53C C93U G112U G152U
A16U U55A C105G G133U A147G
A16U U55G C93G
A16U U56A C76G U77G C118U

Polymerase ribozyme fitness (log ratio), -3.95:
A16U A20U U146A

Polymerase ribozyme fitness (log ratio), -2.75:
A16U C18A A21C A73U G92U

Polymerase ribozyme fitness (log ratio), -3.13:
A16U A37C C63U C95U A119U A122U

Polymerase ribozyme fitness (log ratio), -1.31:
A16G C57G C76A

Polymerase ribozyme fitness (log ratio), -4.08:
A16U C54A U101G A119U C149U

Polymerase ribozyme fitness (log ratio), -3.4:
A16G G128U

Polymerase ribozyme fitness (log ratio), -4.05:
A16U G46C G50C G67A G74C C118U U130A

Polymerase ribozyme fitness (log ratio), -3.72:
A16U U56A A60U C93U G141U

Polymerase ribozyme fitness (log ratio), -2.73:
A16U A22U C38U C85U

Polymerase ribozyme fitness (log ratio), -3.78:
A16U C38A C85A

Polymerase ribozyme fitness (log ratio), -3.96:
A16U C38U C51U A73G G92U G94A A98C U151A

Polymerase ribozyme fitness (log ratio), -4.18:
A16U A17G C85G

Polymerase ribozyme fitness (log ratio), -1.7:
A16G U56A

Polymerase ribozyme fitness (log ratio), -0.814:
A16G G83A
